Reference: PubChem BioAssay AID1508642 (National Center for Advancing Translational Sciences (NCATS), 2021)
Hit rate of the full screen: of about 43,000 compounds, about 200 (0.47%) were called active. Inconclusive results (about 12%) are left out. The call rests on the fitted dose curve; in most records, active means well fitted cell-killing curve with a large enough effect; inconclusive means small, poorly fitted or top-dose-only effect, or effect the other way; inactive means flat fitted curve, though single readings scatter. Some of the results follow.

test: Cell viability qHTS assay in S16 Pmp22-F2sN cells; conditions: S16 Pmp22-F2sN Schwann cells (luciferase reporters placed in the Pmp22 gene) viability, CellTiter-Glo, 24 h; series mostly up to 57.5 µM; activity change, negative = cytotoxicity: at the top concentration; further: nearly all actives have a fitted effect of over 65% in size
How it was run: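 Seed 500-1,000 S16 Pmp22-F2sN cells per well in phenol-red-free DMEM with 10% heat-inactivated FBS; pin-add 23 nL compound; incubate 24 h at 37C; add CellTiter-Glo, wait 15 min protected from light; read luminescence.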
On the % scale 0 is the no-effect control and ±100 the full control effect.

SMILES	activity change, negative = cytotoxicity
CC(=O)c1ccc(Oc2nc(C)nc3c2oc2ccccc23)cc1	inactive: -5.08%
COc1ccc(-c2nc(C(=O)Nc3ccc(C(C)=O)cc3)nn2-c2cccc(Cl)c2)cc1	inactive: 8.57%
COc1ccc(S(=O)(=O)NCCc2csc3nc(-c4ccc(OC)c(OC)c4)nn23)cc1C	inactive: -2.68%
O=C1CCSc2ccc(S(=O)(=O)Nc3ccc(Cl)c(C(F)(F)F)c3)cc2N1	inactive: 1.5%
CC(C)c1ccc(NC(=O)c2ccc(F)c(S(=O)(=O)N3CCCCCC3)c2)cc1	inactive: -0.452%
Cc1noc(C)c1S(=O)(=O)N1CCC(C(=O)Nc2ccc(Br)cc2)CC1	inactive: 0.596%
COc1ccc(CNC(=O)c2nc(Cn3nc(C)c(Br)c3C)no2)cc1OC	inactive: -6.87%
COc1cc(NC(=O)c2sc3nc4n(c(=O)c3c2C)CCCCC4)cc(OC)c1OC	inactive: -14%
CCc1ccccc1NC(=O)c1ccc2c(c1)CCN2S(C)(=O)=O	inactive: -14.5%
CC(C)(C)c1ccc(C(=O)Nc2cc(-c3nc4ccccc4o3)ccc2Cl)cc1	inactive: 6.94%
CCCCn1c(=O)c2oc3ccccc3c2n(CC(=O)Nc2cccc(Cl)c2C)c1=O	inactive: 5.07%
CCc1ccccc1NC(=O)C1CCN(S(=O)(=O)c2ccc3[nH]c(=O)ccc3c2)CC1	inactive: 1.06%
COc1ccc(C)cc1NC(=O)NCc1cccn1Cc1ccccc1	inactive: -12.5%
COc1ccccc1NC(=O)CN(C)S(=O)(=O)c1ccc2c(c1)c(=O)n(C)c(=O)n2C	inactive: -16.9%
Cc1ccc(CN2CCC(CNC(=O)Nc3cccc(Cl)c3C)C2)cc1 (stereo unspecified)	inactive: -23.3%
Cc1ccc(CCNC(=O)NCc2noc3ccccc23)cc1	inactive: 3.05%
O=C(NCc1ccccc1)c1ccc2nc(CCc3ccccc3)oc2c1	inactive: 0.483%
CC1CCCN(S(=O)(=O)c2ccc3[nH]c(=O)cc(C(=O)NCCc4ccc(Cl)cc4)c3c2)C1 (stereo unspecified)	inactive: 3%
Cc1c(CNC2CCCCCC2)c(C(=O)O)c(C)n1Cc1ccc(F)cc1Cl	inactive: 1.68%
CCOCCCN(C(=O)Nc1ccc(Cl)cc1)C1CCN(C(C)=O)CC1	inactive: 10.4%
O=C(COc1ccc(Cl)cc1)Nc1nnc2n1CCS2	inactive: -2.8%
CCc1ccc(-n2c(=O)c3c4c(sc3n(Cc3ccc(C)cc3)c2=O)CCC4)cc1	inactive: 19%
Cc1cc(C)cc(N2CC(c3nc(-c4cccc(Cl)c4)no3)CC2=O)c1 (stereo unspecified)	inactive: 2.78%
COc1ccc(CCNc2nccn(-c3ccc(C)c(C)c3)c2=O)cc1OC	inactive: -1.95%

SMILES	activity change, negative = cytotoxicity
CC(=O)N1CCc2cc(S(=O)(=O)NC(Cc3ccccc3)C(=O)Nc3cccc(C)c3)ccc21 (stereo unspecified)	inactive: -15%
Oc1c(C(c2ccc(F)cc2)N2CCOCC2)sc2nc(-c3ccco3)nn12 (stereo unspecified)	inactive: 5.35%
O=C1C(Nc2ccccc2)=CC(c2ccc(Br)cc2)N1c1ccccc1 (stereo unspecified)	inactive: 2.8%
COc1ccc(NC(=O)[C@H]2O[C@@H]3OC(C)(C)O[C@@H]3[C@H]3OC(C)(C)O[C@H]32)c(OC)c1	inactive: 11.8%
CCOC(=O)C1CCCN(c2nc3c(S(=O)(=O)c4ccc(CC)cc4)nnn3c3ccsc23)C1 (stereo unspecified)	inactive: 7.31%
Cc1ccc2c(c1)c1c(c(=O)n(-c3cccc(Cl)c3)c(=O)n1CC(=O)NCC1CCCO1)n2C (stereo unspecified)	inactive: -3.71%
CC(C)CCNC(=O)CN1C(=O)CSc2ccc(S(=O)(=O)N3CCC(C)CC3)cc21	inactive: 4.08%
CCc1cccc(NC(=O)CCc2nc3cccnc3n2Cc2ccc(OC)cc2)c1	inactive: 0.428%
CCOC(=O)Cc1ccc(NC(=O)Nc2c[nH]c(=O)[nH]c2=O)cc1	inactive: -1.57%
Cc1ccccc1OCC(=O)Nc1ccc(-c2nc3ccccc3o2)cc1	inactive: 28%
Cn1c(=O)[nH]c(=O)c2c1nc(N1CCOCC1)n2Cc1ccccc1	inactive: -23%
COc1ccc(NC(=O)Cn2nnc(C(=O)NCc3cccs3)c2N)cc1	inactive: 4.07%
Cc1ccc(NC(=O)CSc2nc(=O)n(Cc3cccnc3)c3c2CCC3)cc1F	inactive: 2.89%
Cc1ccc(-c2csc(-c3nc(-c4ccc(Br)s4)cs3)n2)cc1	inactive: -2.75%
CCc1cccc(C)c1NC(=O)c1cc(S(=O)(=O)N(Cc2ccc(C(=O)OC)cc2)Cc2ccc(OC)c(OC)c2)ccc1F	inactive: -0.112%
Cc1ccccc1Oc1nc2ccccn2c(=O)c1/C=C(\C#N)c1nc2ccccc2[nH]1	inactive: 4.61%
COc1ccc(NC(=O)CN2C(=O)CC(c3ccc(C)c(C)c3)=Nc3ccccc32)cc1OC	inactive: -29.5%
COc1ccc(Cc2nc3ccc(C(=O)NCc4ccccc4C)cc3o2)cc1	inactive: -5.13%
CCC(CC)C(=O)Nc1ccc2nc(SCC(=O)N3CCCC3)sc2c1	inactive: -12.4%
Cc1ccc(-n2nc(C(=O)Nc3ccc(F)cc3F)c3c4ccccc4n(C)c3c2=O)cc1	inactive: -16.1%
Cc1ccc(C)c(NC(=O)CN(C)S(=O)(=O)c2cccc3nsnc23)c1	inactive: 3.23%
COc1ccccc1NC(=O)Cn1cc(S(=O)(=O)Cc2ccccc2)c2ccccc21	inactive: -11.4%
CC(C)(C)C1CCc2c(sc(NC(=O)c3cc4ccccc4c(=O)o3)c2C(N)=O)C1 (stereo unspecified)	inactive: 10.5%
Cc1ccc(C)c(NC(=O)Cn2c(=O)n(CCC(C)C)c(=O)c3cccnc32)c1	inactive: -7.19%

SMILES	activity change, negative = cytotoxicity
CC(=O)c1cccc(NC(=O)C2CCN(S(=O)(=O)c3ccc4c(c3)CCCN4C(C)=O)CC2)c1	inactive: -19.6%
Cc1ccc(-c2nc(C)c(CCNC(=O)c3cccs3)s2)cc1	inactive: -4.54%
Cc1ccc(CN2CCCn3nc(C(=O)NCCc4ccccc4C)cc3C2=O)cc1	inactive: -5.76%
COc1cc(C(=O)Nc2ccccc2-c2nc(-c3ccccc3)no2)cc(OC)c1OC	inactive: 0.162%
Cc1c(C(=O)OCc2ccccc2)[nH]c2c1C(=O)CC(c1ccc(C(C)(C)C)cc1)C2 (stereo unspecified)	inactive: 0.912%
COc1ccc(Cn2ccc3nc(C)c(C(=O)Nc4ccc(OC)cc4)cc3c2=O)cc1	inactive: 2.32%
COc1ccc(CNC(=O)C2CCN(S(=O)(=O)c3c(C)noc3/C=C/c3ccccc3F)CC2)cc1	inactive: 6.46%
Cc1cccc(C(=O)OCc2cc(=O)n3ccsc3n2)c1	inactive: 34.6%
CC(=O)Nc1nc2n(n1)C(c1ccc(F)cc1)C=C(c1ccc(Cl)cc1)N2 (stereo unspecified)	inactive: -1.6%
CC(C(=O)NCCSCc1cccc(Cl)c1)N(c1ccccc1)S(C)(=O)=O (stereo unspecified)	inactive: 25.3%
Cc1ccc(-n2c(C)cc(C(=O)C(=O)Nc3ccccc3)c2C)c(C)c1	inactive: 1.62%
CCOc1ccc(N2CC(NC(=O)c3ccco3)CC2=O)cc1 (stereo unspecified)	inactive: 1.39%
CC1CCCN(C(=O)c2cc3ccc4cccnc4c3[nH]2)C1 (stereo unspecified)	inactive: -11.6%
Cc1cccc(OCC(=O)Nc2cccc(OCc3cc(=O)n4cccc(C)c4n3)c2)c1	inactive: -9.33%
O=C(/C=C/c1ccccc1)Nc1cc(-c2nc3cc(Cl)ccc3o2)ccc1Cl	inactive: -1.03%
Cc1cc2nc(-c3cccc(NC(=O)c4cccc5ccccc45)c3)oc2cc1C	inactive: -10.8%
Cc1cc(C)c(NC(=O)Cn2c(=O)c3cccn3c3ccccc32)c(C)c1	inactive: 6.02%
COc1cccc(-n2ccnc2SCC(=O)Nc2c(C)cc(C)cc2C)c1	inactive: -3.37%
CCCCNC(=O)c1ccc2c(c1)N(Cc1ccc(F)cc1)C(=O)c1ccccc1S2=O (stereo unspecified)	inactive: -22.9%
CC(=O)N1c2ccccc2CC1C(=O)N1CCN(c2ccccc2)CC1 (stereo unspecified)	inactive: 2.54%
Cc1ccc(NC(=O)c2c(C)cc(C)nc2SCC(=O)Nc2ccc(Br)cc2)cc1	inactive: 0.686%
COc1ccc(N(Cc2cc3ccccc3[nH]c2=O)C(=O)c2cccc(Cl)c2)cc1	inactive: 17.1%
CCOC(=O)Cc1ccc(NC(=O)NCc2c(-n3cccc3)sc3c2CCCC3)cc1	inactive: -12.5%
CCCCN1CC(c2nc3ccccc3n2CCCCOc2cc(C)ccc2C)CC1=O (stereo unspecified)	inactive: -7.63%

SMILES	activity change, negative = cytotoxicity
O=C(CS(=O)(=O)c1cccc2nsnc12)Nc1ccccc1Cl	inactive: -0.375%
O=S(=O)(c1ccc(OC(F)(F)F)cc1)N1CCC(c2nnnn2-c2ccc(F)cc2)CC1	inactive: -0.659%
Cc1ccc(NC(=O)c2nc(S(C)(=O)=O)ncc2N(Cc2ccc(C(C)(C)C)cc2)Cc2ccco2)cc1C	inactive: 1.53%
CN(C(=O)CCc1nc(-c2ccccc2F)no1)c1ccc(Cl)cc1	inactive: -6.99%
CCN1CCSc2ccc(C(=O)NCc3ccc(OC(C)C)cc3)cc21	inactive: 10.8%
CCn1cc(C(=O)OCC(=O)Nc2ccc(C)c(Cl)c2)c(=O)c2ccc(C)nc21	inactive: 10.3%
COc1ccc(-c2noc(CSCC(=O)Nc3cc(OC)c(OC)c(OC)c3)n2)cc1OC	inactive: -1.64%
CCOc1ccc(-c2cc3c(=O)n(CC(=O)NCc4ccc(C)cc4)ccn3n2)cc1	inactive: 5.52%
COc1cc(C(=O)NCC(c2ccc3c(c2)OCO3)N2CCOCC2)cc(OC)c1OC (stereo unspecified)	inactive: 10.2%
CCCC(O)c1nc2ccccc2n1CCCOc1ccc(Cl)cc1 (stereo unspecified)	inactive: -3.39%
COc1cc(/C=C/c2nc(C#N)c(N3CCN(C)CC3)o2)cc(OC)c1OC	inactive: -3.31%
CSc1cccc(NC(=O)C2CCN(c3nc4ccccc4[nH]3)CC2)c1	inactive: 3.72%
Cc1c(-c2nc(-c3ccccc3)no2)nnn1-c1ccc(F)c(Cl)c1	inactive: 9.73%
CCc1ccc(NC(=O)Cn2c(=O)n(-c3ccc(Cl)c(Cl)c3)c(=O)c3c(C)c(C)sc32)cc1	inactive: 16.3%
COc1ccc(Cl)c2sc(NC(=O)c3ccc(S(=O)(=O)N4CCOCC4)cc3)nc12	inactive: -8.95%
COc1cccc(NS(=O)(=O)c2ccc3c(c2)n(C)c(=O)n3C)c1	inactive: -22%
COc1ccc(NC(=O)COCc2cc(-c3ccc4c(c3)OCO4)on2)cc1	inactive: 3.3%
CN(C(=O)c1ccc2c(c1)N(Cc1cccc(Cl)c1)C(=O)c1ccccc1S2(=O)=O)C1CCCCC1	inactive: -23%
O=C(CSc1nnc(-c2ccccc2Cl)o1)N1CCCc2ccccc21	inactive: -13%
COc1ccc(NC(=O)c2c(NCc3cccs3)sc3c2CCC(C)C3)c(OC)c1 (stereo unspecified)	inactive: -7.55%
CC(=O)N1CCc2cc(Br)cc(S(=O)(=O)CCC(=O)N3CCN(c4ccc(F)cc4)CC3)c21	inactive: 3.9%
Cc1c(C(=O)N(Cc2ccccc2F)C2CCS(=O)(=O)C2)oc2ccccc12 (stereo unspecified)	inactive: -9.81%
Cc1nn(C)c2c1c(C(F)(F)F)cc(=O)n2C(C)C(=O)Nc1ccccc1F (stereo unspecified)	inactive: -0.0837%
CCOc1ccc(C(=O)c2cn(CC(=O)Nc3ccc(Cl)cc3)c3cc4c(cc3c2=O)OCO4)cc1	inactive: -7.11%
